# Laboratory results published in PubChem BioAssay AID686979 (National Center for Advancing Translational Sciences (NCATS), 2013).
# “And” between values parts separate entries of the source, which are not always exact repeats. Equal values may be shown once. Among all 420,000 compounds or so, about 50,000 (12%) were called active. Inconclusive results, whose numbers are uncertain, are shown with a selection of clear calls. The call rests on the fitted dose curve; in most records, active means well fitted inhibition curve with a large enough effect; inconclusive means small, poorly fitted or top-dose-only effect; inactive means flat fitted curve, though single readings scatter. Potencies of inconclusive entries are left out as doubtful fits.
# Test: qHTS for Inhibitors of human tyrosyl-DNA phosphodiesterase 1 (TDP1): qHTS in cells in presence of CPT; further: nearly all actives have a fitted effect of over 55% in size
# Conditions: chicken DT40 Tdp1-/-;hTDP1 cells + 20 nM CPT, ATP luminescence, 48 h; activity change, negative = growth inhibition: at 46.2 µM (top of the series)
# Outline: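 Chicken DT40 Tdp1-/- cells stably complemented with human TDP1 were seeded at 400 cells/well in medium containing 20 nM camptothecin, exposed to pin-transferred compounds, and grown at 37 °C for at least 48 hr. Viability was read as ATP luminescence.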
# On the % scale 0 is the no-effect control and ±100 the full control effect; potency means the concentration at half of the fitted maximal effect; tags describe the fitted curve by direction and shape.
SMILES,Potency,"activity change, negative = growth inhibition"
COc1cccc(-c2cc(C(=O)Nc3c(C)nn(Cc4ccccc4Cl)c3C)no2)c1,active: 9.2 µM,–
C=CCn1c(SCC(=O)NC(=O)NCc2ccco2)nc2sc(C)c(C)c2c1=O,"inconclusive [inhibitor, partial curve]",–
Cc1cc2nnc(SCc3ccc(F)cc3)n2c2ccccc12,"inconclusive [inhibitor, single point]",–
Cc1ccc(-c2ccc(S(=O)(=O)NCC3CCCO3)cc2)cc1 (stereo not drawn),"inconclusive [inhibitor, single point]",–
O=C(CN1c2cccc3cccc(c23)S1(=O)=O)NCc1ccc(F)cc1,"inconclusive [inhibitor, partial curve]",–
S=C(Nc1ccccc1Oc1ccccc1)Nc1cccc(Cl)c1Cl,inactive,–
CN1CCN(C2(CNC(=O)c3ccc(C(C)(C)C)cc3)CCCCC2)CC1,"inconclusive [inhibitor, single point]",–
FC(F)(F)c1ccc(NC(=S)NC2CCCCC2)cc1,"inconclusive [inhibitor, partial curve, poor fit]",–
CC(=O)Nc1nnc(SCC(=O)N2CCc3ccccc32)s1,inactive,–
Cc1ccc(NC(=O)CN2C(=O)C3CC=CCC3C2=O)cc1S(=O)(=O)N1CCOCC1 (stereo not drawn),inactive,–
CC(c1ccccc1)N1CCn2c(nc3cc(NC(=O)NC4CCCCC4)ccc32)C1 (stereo not drawn),active: 22.4 µM,–
O=C1/C(=C\c2cccc(O)c2)SC(=S)N1Cc1ccccc1,"inconclusive [inhibitor, single point]",–
O=C(C=Cc1ccc(Cl)s1)c1ccc(Cl)s1,"inconclusive [inhibitor, single point]",–
CN(C)C(=O)c1ccc(-n2nc(C(F)(F)F)c3c2CCCC3)cc1,"inconclusive [inhibitor, single point]",–
CCNc1nc(NC(C)C)nc(Nn2cnnc2)n1,inactive,–
C(=N\n1cnnc1)/c1ccccn1,inactive,–
CSc1ccccc1OCc1cc(C(=O)NCc2ccc(C)s2)no1,"inconclusive [inhibitor, partial curve]",–
CC(=O)Nc1cccc(-c2cc(NC(C)=O)c3ncc(-c4ccc(F)cc4)n3c2)c1,"inconclusive [inhibitor, single point]",–
COc1cccc(C(=O)COC(=O)c2n[nH]c(=O)c3ccccc23)c1,inactive,–
COc1ccc(CN(C)CC(=O)Nc2c(C)cccc2C)c(OC)c1,"inconclusive [inhibitor, single point]",–
COc1cccc(C(=O)NCc2ccc3c(c2)CCN3C(=O)c2ccncc2)c1,inactive,–
COc1cccc(CNC(=O)Cn2c(=O)ccc3cc(S(=O)(=O)N4CCC(C)CC4)ccc32)c1,"inconclusive [inhibitor, single point]",–
COc1cc(SC)ccc1C(=O)NC1CCCCC1,–,inconclusive: -32.8% [inhibitor]
COc1ccc(N(C)S(=O)(=O)c2cccc(C(=O)Nc3nc(C)c(C(C)=O)s3)c2)cc1,"inconclusive [inhibitor, single point]",–
COc1ccc(/C=C2\Sc3ccc(C(=O)NCc4cccnc4)cc3N(C)C2=O)cc1OC,active: 20.6 µM,–

SMILES,Potency,"activity change, negative = growth inhibition"
Cc1ccc(NC(=O)CSc2nnnn2-c2ccc3c(c2)OCO3)cc1C,"inconclusive [inhibitor, partial curve]",–
COc1ccc(NC(=O)c2ccc3c(c2)CCN3S(=O)(=O)c2ccccc2)c(OC)c1,"inconclusive [inhibitor, single point]",–
Cc1cc(NC(=O)CSc2cc(Cl)ccc2Cl)n(-c2ccccc2)n1,inactive,–
O=S(=O)(c1ccc(NC(=S)N2CCN(c3ccccc3F)CC2)cc1)N1CCOCC1,"inconclusive [inhibitor, single point]",–
Cn1c(=O)[nH]c2cc3ccccc3cc21,inactive,–
S=C(Cc1ccccc1)N1CCOCC1,inactive,–
COc1ccccc1-c1nc(SCC(=O)c2ccccc2)n[nH]1,"inconclusive [inhibitor, single point]",–
COC(=O)c1cc2cc(NS(=O)(=O)c3ccc(C)cc3)ccc2s1,"inconclusive [inhibitor, single point]",–
COc1ccc(C(=O)NC(=S)NNC(=O)COc2ccccc2)cc1,active: 14.6 µM,–
CCCCOc1cccc(C(=O)N(Cc2ccccc2)C2CCS(=O)(=O)C2)c1 (stereo not drawn),active: 13 µM,–
CCN1C(=O)CSC1=Nc1ccc(C(=O)O)cc1,inactive,–
Cn1cccc1/C=N/NC(=O)c1ccccn1,"inconclusive [inhibitor, single point]",–
COc1cc(NS(=O)(=O)c2ccc(NC(=S)NC(=O)/C=C/c3ccco3)cc2)ncn1,"inconclusive [inhibitor, single point]",–
O=C(c1cc2c(ccc3ccccc32)o1)N1CCCCC1,"inconclusive [inhibitor, single point]",–
Cc1ccc(CNC(=O)CCC2CCCN(Cc3cc4ccccc4o3)C2)o1 (stereo not drawn),"inconclusive [inhibitor, single point]",–
O=C(Nc1ccc(C(=O)N2CCN(c3cccc(Cl)c3)CC2)cc1)c1nsc2ccccc12,"inconclusive [inhibitor, single point]",–
CCn1c(=O)c2cc(C(=O)NCCOC)sc2c2ccccc21,"inconclusive [inhibitor, single point]",–
COC(=O)c1ccc(CSc2nncn2C)cc1,inactive,–
COc1ccccc1C1CCCN1Cc1nc(-c2cc3c(cc2Cl)OCO3)oc1C (stereo not drawn),"inconclusive [inhibitor, single point]",–
COc1ccc(CN(C(=O)c2snc(C(N)=O)c2N)C(C(=O)NC2CCCC2)c2cc(OC)ccc2OC)cc1 (stereo not drawn),inactive,–
CCCCCN1C(C(=O)c2ccccc2)=C(NC(=O)c2ccc(OC)cc2)c2ccccc2S1(=O)=O,"inconclusive [inhibitor, single point]",–
Cc1ccc(C(=O)NC(C#N)=C(Cl)Cl)cc1,"inconclusive [inhibitor, full curve, poor fit]",–
COc1ccccc1C(=O)Oc1c(Sc2ccccc2)c(C)nn1C(C)(C)C,"inconclusive [inhibitor, partial curve]",–
c1ccc(-c2ccc(-c3nc(-c4ccncc4)no3)cc2)cc1,"inconclusive [inhibitor, single point]",–
Cc1ccc(NC(=O)c2cc(S(=O)(=O)N(C)C3CCCCC3)ccc2F)cc1C,active: 18.4 µM,–

SMILES,Potency,"activity change, negative = growth inhibition"
COc1ccc(NC(=O)c2ccc(-c3nc(CSc4ccc(C)cc4)c(C)o3)cc2)cc1Cl,"inconclusive [inhibitor, partial curve]",–
CCN(c1cccc(C)c1)S(=O)(=O)c1ccc(N2CCCCS2(=O)=O)cc1,active: 13 µM,–
CCc1nnc(NC(=O)c2nc(S(=O)(=O)Cc3ccc(C)cc3)ncc2Cl)s1,active: 7.31 µM and active: 16.4 µM,–
Nc1ccccc1SSc1ccccc1N,active: 5.17 µM,–
COc1ccc(CN2CC[C@H]3C=CC[C@@H](C(=O)NC4CCCCC4)[C@H]3C2=O)cc1OC,inactive,–
COc1ccc(NC(=O)c2cccc(NC(=O)c3ccco3)c2)c(OC)c1,"inconclusive [inhibitor, partial curve]",–
COc1cc(C(=O)NCC(=O)NCCN2C(=O)S/C(=C\c3ccc4c(c3)OCO4)C2=O)cc(OC)c1OC,"inconclusive [inhibitor, full curve, poor fit]",–
COc1ccc(-n2cnnc2SCc2ncc(-c3ccccc3)o2)cc1,inactive,–
Cn1nnnc1SCC(=O)Nc1ncc(C(F)(F)F)cc1Cl,inactive,–
O=C(Nc1ccc(-c2noc(COc3ccccc3Cl)n2)cc1)c1ccco1,"inconclusive [inhibitor, single point]",–
O=[N+]([O-])c1ccc(/C=N/N2CCCCC2)cc1,"inconclusive [inhibitor, single point]",–
COc1ccccc1Oc1c(C)oc2c(CN(C)C)c(O)ccc2c1=O,inactive,–
COc1ccc(-c2cc(CCCC(=O)NCc3ccccn3)no2)cc1,"inconclusive [inhibitor, single point]",–
COc1cc(OC)cc(OC(=O)C2CCN(C(=O)c3ccc(F)cc3)CC2)c1,inactive,–
O=C(C1CCN(S(=O)(=O)c2cccc3cccnc23)CC1)N1CCN(c2ccccc2)CC1,inactive,–
COc1ccc(Br)cc1C(=O)Nc1ccccc1-c1ccccc1,"inconclusive [inhibitor, single point]",–
C=C(c1ccc2ccccc2n1)c1cccs1,active: 11.2 µM,–
COc1cc(C2C(C#N)=C(N)N(Nc3ccccc3)C3=C2C(=O)CC(C)(C)C3)ccc1OCc1ccccc1 (stereo not drawn),"inconclusive [inhibitor, single point]",–
CCn1c2ccccc2c2cc(NC(=O)c3cccc([N+](=O)[O-])c3)ccc21,active: 20.6 µM,–
CN(Cc1ccccc1)C(=S)NC(=O)c1ccc(-c2ccccc2)cc1,active: 4.61 µM,–
Cc1cc(C)c(NC(=O)C(C)n2c(=O)c(C(F)(F)F)nc3ccccc32)c(C)c1 (stereo not drawn),"inconclusive [inhibitor, single point]",–
Cc1ccc(C(=O)c2cc([N+](=O)[O-])ccc2N2CC(C)OC(C)C2)cc1 (stereo not drawn),active: 5.8 µM,–
CCOc1nc(Nc2cc(Cl)ccc2OC)nc(OCC)n1,active: 20.6 µM,–
